Assay results: publication PMC8266214
These are yes or no findings as the source states them, for the method shown. Binding seen in cells or lysates may run through a third protein. Some results given as binding are weak or reduced against the parent protein; the word gives no strength.

By UniProt entry, the sequences of proteins in these tests, tags left out. Residues count along the entry.
UniProt P15116, residues 160-906: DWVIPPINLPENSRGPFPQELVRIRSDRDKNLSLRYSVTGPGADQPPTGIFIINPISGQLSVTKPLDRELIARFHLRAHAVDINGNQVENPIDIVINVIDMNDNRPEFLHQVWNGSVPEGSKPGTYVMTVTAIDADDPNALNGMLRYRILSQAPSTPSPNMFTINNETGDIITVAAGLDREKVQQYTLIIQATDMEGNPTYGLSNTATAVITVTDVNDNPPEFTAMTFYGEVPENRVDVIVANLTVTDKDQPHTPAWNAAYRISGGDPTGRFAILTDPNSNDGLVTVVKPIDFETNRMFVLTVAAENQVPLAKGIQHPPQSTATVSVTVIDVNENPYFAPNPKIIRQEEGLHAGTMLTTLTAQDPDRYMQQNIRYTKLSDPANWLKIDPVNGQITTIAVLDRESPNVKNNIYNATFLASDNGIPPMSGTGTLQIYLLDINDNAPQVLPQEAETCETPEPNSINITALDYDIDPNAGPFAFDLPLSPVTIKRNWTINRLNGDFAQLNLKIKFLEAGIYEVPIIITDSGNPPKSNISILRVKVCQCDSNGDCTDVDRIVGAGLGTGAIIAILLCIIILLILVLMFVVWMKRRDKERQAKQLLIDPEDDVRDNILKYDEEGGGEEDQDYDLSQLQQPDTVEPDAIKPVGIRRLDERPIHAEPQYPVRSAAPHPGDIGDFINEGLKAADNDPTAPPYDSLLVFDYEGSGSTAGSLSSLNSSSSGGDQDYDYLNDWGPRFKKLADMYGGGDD
UniProt Q99K10, residues 46-843: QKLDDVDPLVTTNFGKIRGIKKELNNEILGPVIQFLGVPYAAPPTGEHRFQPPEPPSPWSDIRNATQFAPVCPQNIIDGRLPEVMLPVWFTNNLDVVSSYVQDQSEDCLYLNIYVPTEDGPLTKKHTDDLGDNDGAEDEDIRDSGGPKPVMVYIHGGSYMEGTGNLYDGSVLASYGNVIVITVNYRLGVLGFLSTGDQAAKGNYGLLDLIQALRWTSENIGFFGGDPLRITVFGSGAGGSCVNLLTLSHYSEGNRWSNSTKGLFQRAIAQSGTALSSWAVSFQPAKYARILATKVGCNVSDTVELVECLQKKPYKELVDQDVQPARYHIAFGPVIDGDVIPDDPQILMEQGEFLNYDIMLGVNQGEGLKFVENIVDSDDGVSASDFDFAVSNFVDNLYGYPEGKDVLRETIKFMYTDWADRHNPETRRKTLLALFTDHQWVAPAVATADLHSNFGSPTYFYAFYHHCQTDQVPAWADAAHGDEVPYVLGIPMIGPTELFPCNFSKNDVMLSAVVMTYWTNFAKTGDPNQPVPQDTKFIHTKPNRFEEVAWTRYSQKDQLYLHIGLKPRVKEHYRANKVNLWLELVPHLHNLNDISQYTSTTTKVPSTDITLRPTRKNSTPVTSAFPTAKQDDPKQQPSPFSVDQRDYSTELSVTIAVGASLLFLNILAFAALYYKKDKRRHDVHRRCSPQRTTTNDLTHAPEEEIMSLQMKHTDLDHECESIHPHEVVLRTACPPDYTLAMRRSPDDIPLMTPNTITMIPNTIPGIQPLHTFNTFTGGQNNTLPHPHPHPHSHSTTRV
UniProt Q02248: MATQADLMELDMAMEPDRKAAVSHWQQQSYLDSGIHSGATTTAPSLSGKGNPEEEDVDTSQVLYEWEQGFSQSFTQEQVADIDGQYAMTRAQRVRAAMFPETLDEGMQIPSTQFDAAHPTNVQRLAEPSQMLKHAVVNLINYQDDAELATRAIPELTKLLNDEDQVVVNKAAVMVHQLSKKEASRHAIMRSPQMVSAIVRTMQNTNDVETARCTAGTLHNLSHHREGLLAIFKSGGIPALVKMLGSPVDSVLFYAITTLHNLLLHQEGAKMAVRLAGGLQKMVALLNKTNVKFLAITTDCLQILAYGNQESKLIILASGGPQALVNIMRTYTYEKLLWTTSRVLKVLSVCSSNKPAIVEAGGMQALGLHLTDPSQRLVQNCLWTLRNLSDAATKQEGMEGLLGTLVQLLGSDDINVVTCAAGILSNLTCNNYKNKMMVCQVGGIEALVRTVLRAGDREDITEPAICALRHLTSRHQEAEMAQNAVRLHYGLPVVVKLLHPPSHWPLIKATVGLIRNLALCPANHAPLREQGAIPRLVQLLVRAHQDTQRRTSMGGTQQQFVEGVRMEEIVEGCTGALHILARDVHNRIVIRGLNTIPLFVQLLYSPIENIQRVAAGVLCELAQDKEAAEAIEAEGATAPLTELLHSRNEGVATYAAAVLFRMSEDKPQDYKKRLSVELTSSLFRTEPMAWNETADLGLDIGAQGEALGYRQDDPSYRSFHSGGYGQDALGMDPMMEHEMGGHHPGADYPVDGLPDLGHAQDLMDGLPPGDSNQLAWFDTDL

target: T1, cadherin-11 (mouse (endogenous in P14 forebrain)) (UniProt P55288); assay: co-IP; P14 mouse forebrain lysate (20 mM Tris pH 7.5, 150 mM NaCl, 1% Triton X-100), 0.5 mg protein extract precleared; IP with 2 μg anti-cadherin-8 or 7 μg anti-cadherin-11 for 2 h at 4°C, Protein-G or rProtein A Sepharose, three washes in lysis buffer; Western blot; mouse or rabbit IgG as control
T1 sequence: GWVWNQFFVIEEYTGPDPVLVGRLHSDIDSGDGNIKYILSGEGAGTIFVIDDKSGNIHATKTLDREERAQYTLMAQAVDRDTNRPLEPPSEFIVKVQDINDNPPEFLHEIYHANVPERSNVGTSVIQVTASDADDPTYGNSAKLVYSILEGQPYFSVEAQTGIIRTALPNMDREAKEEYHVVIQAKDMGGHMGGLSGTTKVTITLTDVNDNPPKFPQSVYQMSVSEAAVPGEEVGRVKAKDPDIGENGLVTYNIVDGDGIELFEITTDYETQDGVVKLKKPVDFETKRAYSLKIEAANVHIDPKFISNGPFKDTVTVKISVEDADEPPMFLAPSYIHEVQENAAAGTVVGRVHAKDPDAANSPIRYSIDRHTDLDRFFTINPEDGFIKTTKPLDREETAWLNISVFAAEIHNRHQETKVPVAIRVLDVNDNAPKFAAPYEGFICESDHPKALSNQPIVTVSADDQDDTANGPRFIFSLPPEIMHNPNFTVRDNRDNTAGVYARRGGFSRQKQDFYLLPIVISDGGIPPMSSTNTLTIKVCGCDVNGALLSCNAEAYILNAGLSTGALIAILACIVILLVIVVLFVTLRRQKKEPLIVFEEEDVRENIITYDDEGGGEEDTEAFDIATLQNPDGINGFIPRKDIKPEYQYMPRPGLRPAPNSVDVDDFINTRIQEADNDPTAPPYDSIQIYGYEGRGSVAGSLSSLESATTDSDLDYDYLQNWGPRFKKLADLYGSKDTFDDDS

Substance	binding
N-cadherin (from UniProt P15116 160-906)	no binding
neuroligin-1 (from UniProt Q99K10 46-843)	no binding
β-catenin (from UniProt Q02248 1-781)	binds

target: T2, cadherin-8 (mouse (endogenous in P14 forebrain)) (UniProt P97291); assay: as above
T2 sequence: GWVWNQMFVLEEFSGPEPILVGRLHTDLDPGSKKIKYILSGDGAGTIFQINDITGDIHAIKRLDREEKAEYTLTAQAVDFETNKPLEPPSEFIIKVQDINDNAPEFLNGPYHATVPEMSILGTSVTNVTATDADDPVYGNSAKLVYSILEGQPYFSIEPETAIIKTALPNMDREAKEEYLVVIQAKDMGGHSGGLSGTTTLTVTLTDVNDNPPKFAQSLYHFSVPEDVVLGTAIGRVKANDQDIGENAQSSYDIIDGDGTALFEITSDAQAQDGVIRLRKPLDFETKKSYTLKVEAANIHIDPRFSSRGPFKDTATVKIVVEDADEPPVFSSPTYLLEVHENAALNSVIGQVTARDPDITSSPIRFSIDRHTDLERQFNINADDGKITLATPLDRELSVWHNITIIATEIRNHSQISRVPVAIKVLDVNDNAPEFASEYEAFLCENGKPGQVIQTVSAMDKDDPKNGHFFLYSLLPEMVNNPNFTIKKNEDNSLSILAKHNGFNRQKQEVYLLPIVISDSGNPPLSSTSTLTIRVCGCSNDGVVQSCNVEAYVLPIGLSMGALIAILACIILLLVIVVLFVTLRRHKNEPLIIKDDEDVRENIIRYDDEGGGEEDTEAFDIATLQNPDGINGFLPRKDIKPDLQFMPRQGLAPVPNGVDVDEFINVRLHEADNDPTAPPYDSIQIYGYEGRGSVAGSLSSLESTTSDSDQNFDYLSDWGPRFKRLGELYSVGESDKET

Substance	binding
N-cadherin (from UniProt P15116 160-906)	no binding
neuroligin-1 (from UniProt Q99K10 46-843)	binds
β-catenin (from UniProt Q02248 1-781)	binds
